# Laboratory results as given in patent US20170037136A1 (Janssen / Centocor, published 2017).
# Read-outs that look alike come from different tables or passages of the source.
# T1: shCD154-his (soluble human CD154, His6 fusion) (human, UniProt P29965 113-261)
# T1 construct: predominantly trimer
# T1 sequence: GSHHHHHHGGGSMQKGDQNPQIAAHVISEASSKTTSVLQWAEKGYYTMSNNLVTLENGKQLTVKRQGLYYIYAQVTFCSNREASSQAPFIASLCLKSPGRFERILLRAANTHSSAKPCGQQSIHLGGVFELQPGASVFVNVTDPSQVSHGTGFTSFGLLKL
# How the values were obtained:
# [1] = biological target: T1, shCD154-his (soluble human CD154, His6 …); experiment: SPR (ProteOn XPR36) as in Example 1, human CD154; mean ± SD, n = 8
# Description: Affinity measurements using Surface Plasmon Resonance (SPR) were performed using a ProteOn XPR36 system (BioRad). […] Approximately 4700 RU (response units) of test antibodies were immobilized. The kinetic experiments were performed at 25° C. in running buffer (DPBS+0.03% polysorbate P20+100 μg/ml BSA). […] The association phase was monitored for 3 minutes at 50 μL/min followed by 15 minutes of buffer flow (dissociation phase). The chip surface was regenerated with two 18 second pulses of 100 mM H₃PO₄ (Sigma, Cat#7961) at 100 μL/min.
# The collected data were processed using ProteOn Manager software. First, the data was corrected for background using inter-spots. Then, double reference subtraction of the data was performed by using the buffer injection for analyte injections. The kinetic analysis of the data was performed using a Langmuir 1:1 binding model.
# [2] = biological target: T1, shCD154-his (soluble human CD154, His6 …); experiment: cell-based or functional assay
# [3] = biological target: shCD154-ILZ (soluble human CD154, leucine zipper fusion) (human); experiment: cell-based or functional assay
# [4] = biological target: T1, shCD154-his (soluble human CD154, His6 …); experiment: cell-based or functional assay; remark: listed apart in the source
Binder,Kd [1] [nM],koff [1] [s⁻¹],kon [1] [M⁻¹ s⁻¹],NF-κB SEAP reporter gene assay; IC50 [2] [nM],NF-κB SEAP reporter gene assay; IC50 [3] [nM],NF-κB SEAP reporter gene assay; IC50 [4] [nM]
"C4LB231 (antibody, human IgG1, kappa, C4LB89 variable regions on IgG1sigma/kappa; also called C4LB89 VH on IgG1sigma) heavy: QVQLVQSGAEVKKPGSSVKVSCKASGGTFSSYGISWVRQAPGQGLEWMGWISPIFGNTNYAQKFQGRVTITADESTSTAYMELSSLRSEDTAVYYCARSRYYGDLDYWGQGTLVTVSSASTKGPSVFPLAPSSKSTSGGTAALGCLVKDYFPEPVTVSWNSGALTSGVHTFPAVLQSSGLYSLSSVVTVPSSSLGTQTYICNVNHKPSNTKVDKKVEPKSCDKTHTCPPCPAPEAAGASSVFLFPPKPKDTLMISRTPEVTCVVVDVSAEDPEVKFNWYVDGVEVHNAKTKPREEQYNSTYRVVSVLTVLHQDWLNGKEYKCKVSNKALPSSIEKTISKAKGQPREPQVYTLPPSREEMTKNQVSLTCLVKGFYPSDIAVEWESNGQPENNYKTTPPVLDSDGSFFLYSKLTVDKSRWQQGNVFSCSVMHEALHNHYTQKSLSLSPGK light: DIQMTQSPSSLSASVGDRVTITCRASQSISSYLNWYQQKPGKAPKLLIYYANSLQSGVPSRFSGSGSGTDFTLTISSLQPEDFATYYCQQSDSIPWTFGQGTKVEIKRTVAAPSVFIFPPSDEQLKSGTASVVCLLNNFYPREAKVQWKVDNALQSGNSQESVTEQDSKDSTYSLSSTLTLSKADYEKHKVYACEVTHQGLSSPVTKSFNRGEC",0.031,7.81e-05,2.53e+06,2.32,1.21,2.15
"C4LB232 (antibody, human IgG1, kappa, also called C4LB89 VH on IgG1sigmaYTE) heavy: QVQLVQSGAEVKKPGSSVKVSCKASGGTFSSYGISWVRQAPGQGLEWMGWISPIFGNTNYAQKFQGRVTITADESTSTAYMELSSLRSEDTAVYYCARSRYYGDLDYWGQGTLVTVSSASTKGPSVFPLAPSSKSTSGGTAALGCLVKDYFPEPVTVSWNSGALTSGVHTFPAVLQSSGLYSLSSVVTVPSSSLGTQTYICNVNHKPSNTKVDKKVEPKSCDKTHTCPPCPAPEAAGASSVFLFPPKPKDTLYITREPEVTCVVVDVSAEDPEVKFNWYVDGVEVHNAKTKPREEQYNSTYRVVSVLTVLHQDWLNGKEYKCKVSNKALPSSIEKTISKAKGQPREPQVYTLPPSREEMTKNQVSLTCLVKGFYPSDIAVEWESNGQPENNYKTTPPVLDSDGSFFLYSKLTVDKSRWQQGNVFSCSVMHEALHNHYTQKSLSLSPGK light: DIQMTQSPSSLSASVGDRVTITCRASQSISSYLNWYQQKPGKAPKLLIYYANSLQSGVPSRFSGSGSGTDFTLTISSLQPEDFATYYCQQSDSIPWTFGQGTKVEIKRTVAAPSVFIFPPSDEQLKSGTASVVCLLNNFYPREAKVQWKVDNALQSGNSQESVTEQDSKDSTYSLSSTLTLSKADYEKHKVYACEVTHQGLSSPVTKSFNRGEC",0.0352,8.89e-05,2.54e+06,–,–,–
